# Some compounds were tested as several samples or in several runs, with calls that do not always agree.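 Method: cells in 96-well plates; compound added at one concentration; 48 h incubation; percent growth measured; values under 10 scored active.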 Not every entry of the source has a single result; some have several. This is not the full list of results. An entry can have further records. This drug was run again and again over the years, at the concentration stated with the values; each value is one run. Brackets with × give the number of equal values in this list.
# Legend:
# EKVX NSCLC = assay: NCI-60 one-dose screen, 48 h (100 = growth as untreated, 0 = no growth, -100 = all killed); settings: 25 µM
# SK-OV-3 ovarian = assay: as above; settings: 0.25 µM
structure (smiles),measurement,setting,value
COc1cccc2c1C(=O)c1c(O)c3c(c(O)c1C2=O)C[C@@](O)(C(=O)CO)C[C@@H]3OC1CC(N)C(O)C(C)O1 (stereo not given in full),growth,EKVX NSCLC; runs of 1994,"inactive: 106%, 22% and active: -74.9, -33.2, -2.53, 9.45, -28.6, 8.93, 5.69, -71.8, -23.6, -23.3, -54.4, -32.5, -22.8, -43.7, -38.3, -55.5, -56.1, -45.5, -45.4, -23.5, -52.2, -51.5, -7.69, -44.5, -23.1, -29.8, -14.6, -35%"
same,growth,EKVX NSCLC; runs of 1995,"active: -36.4, -53.1, -34.5, -42.9, -46.2, -44.6, -0.783, -6.92, -47.6, -10.1, -30.1, -30.5, -45.9, -49.4, -44.9, -54.3, -10.3, -67.9, -59.1, -18, -12.4, -29.3, -14.6, -41.6, 8.54, -13.6, -19.9, -8.33, -27.4, -47.4, -22.3 (2×), -46.3, -7.18, -8.96, -67.6, -21.6, -40.7%"
same,growth,EKVX NSCLC; runs of 1996,"active: -52, -32.3, -38.5, -23.6, -5.77, -47.2, -16.3, -15.2, -18.1, -36.9, 7.38, 8.39, -15.8, -7.42, -11.9, -12.8, -39.9, -40.1, -28.3, -6.52, -26.7, -37.7, -33.8, -52.2, -34.1, -37.8, -61.7, -44.5, -21.8, -55.7, -38.7, -49.8, -53.7, -26.1, -35.5, -54.9, -51.3, -59.6, -56.6, -39.4, 5.8, -27.5, -24.4, -29.7, -15.9, -48, -34, -34.4 (2×), -38.2, -32.1, -26.6, -61.5, -17.8, -33.5% and inactive: 39.1%, 13%"
same,growth,EKVX NSCLC; runs of 1997,"active: -50.4, -22, -12, -52.7, -60.4, -45.5, -57, -64.9, 9.91, -34.9, -64.6, -21.5, -65.8, -43.2, -10.1, -53.5, -63.1, -21.3, -24.1, -41.2, -28.3, -26.9, -22.3, -29.5, -39.9, -41.7, -12.1, -61.6, -23.9, -9.41, -19.7, -25.3, 3.43, -23.2, -41.6 (2×), -19.2, -6.33, -38, -31.2% and inactive: 21.7, 12.9, 10.5, 26.4%"
same,growth,EKVX NSCLC; runs of 1998,"active: -0.842, -31.3, -36.6, -6.25, -25.4, -41, -25.7, -32.7, -36.9, -27.6, -41.2, -14.6, -54.8, -1.84, -20.4, -60.7, -59.6, -33.3, -52.2, -43.5, -12.8, -28.6, -73.2, -48.1% and inactive: 31.9%"
same,growth,EKVX NSCLC; runs of 1999,"active: -37.8, -32.8, -52.2, -20.6, -51.7, -86.7, -98.6, -50, -95, -72.2, -17.7, -89.7% and inactive: 20.4%"
same,growth,EKVX NSCLC; runs of 2000,"active: -54.3%, -100%, -70.5%"
same,growth,SK-OV-3 ovarian; runs of 2006,"inactive: 46%, 41.9%"
same,growth,SK-OV-3 ovarian; runs of 2007,"inactive: 39.9, 54.1, 50.3, 51.5, 46.5, 53, 37.4, 61.5, 54.3, 71.1, 65.4, 62.2, 68.3, 60.5, 70.8, 42.8, 24.8, 46.4, 56.2, 47.5, 62.4, 60.7, 32.5, 40.8, 52.7, 48.3, 66.5, 36.4, 54.9, 48.4, 39, 38.8, 29.5, 37.3, 46.1, 45.1, 26.8, 15.4, 17.1, 30, 34.4, 38.4%"
same,growth,SK-OV-3 ovarian; runs of 2008,"inactive: 51.3, 39.9, 32.1, 39.5, 49.1, 67.1, 64.1, 50.6, 54.5, 52.6, 48.2, 45.3, 31.1, 46.7, 47.7, 21.8, 23.5, 44, 34.2 (2×), 27.5, 42.8, 35.3, 49.3, 48.8, 47.6, 96.5, 43.7, 36.1, 32.2, 32.6, 21.3, 11.4, 33.7 (2×), 17.3, 26.8, 16.9, 28, 37.6, 36, 28.4, 36.9, 35.9, 51.8, 49.9, 36.7, 29.3, 12.3, 48.5, 32.5, 27.4% and active: 6.24%"
same,growth,SK-OV-3 ovarian; runs of 2009,"inactive: 31.2 (2×), 34, 21.8, 27.4, 32.4, 39.8, 60, 40.9, 31.6, 28, 58.5, 60.7, 32.3, 40.3, 39.5, 25.9, 16.7, 36.1 (2×), 39.3, 35.6, 24.6, 28.4, 29.1, 30.9 (2×), 32.7, 43.8, 28.9, 60.1, 46.1, 30.6, 24.9, 34.7, 44.9, 24.1, 34.4, 23.8, 15.5, 10.4, 12.6, 24, 18.6, 24.2, 21, 27.8, 24.8 (2×), 18.1, 17.8, 26.1, 37.7, 34.1, 15.8, 42.8, 14.6, 34.2, 32.1 (2×), 48.3, 44, 57, 42.6, 36.4, 29.4, 37.6% and active: 4.94%, 6.74%, 7.92%"
same,growth,SK-OV-3 ovarian; runs of 2010,"inactive: 40.8, 41.8, 42, 35.1, 39.1, 35.9, 46.7 (2×), 32.9, 45.5, 55.8 (2×), 45.1, 38.9, 42.1, 39.5, 50.6, 45.7, 38.6, 42.5 (2×), 44.5, 19.4, 35.6, 22.4, 39.8 (2×), 44.6, 45.6, 47.8, 44.9, 45.8, 54.1, 54.3, 26.5, 51.9, 51.3, 47.6, 52.2, 46.9, 43.7, 36.5, 35.8, 33.6, 48.5, 54.4, 50.7, 52.6, 42.4, 49.5, 56.2, 48.3, 52.5, 53.5, 50.9, 51.7%"
same,growth,SK-OV-3 ovarian; runs of 2011,"inactive: 48, 49.1, 45.5 (2×), 51.4, 48.6, 39.6, 42.8, 56.6, 48.9, 38.7, 55.3, 68, 57.4, 59.4, 53.1, 59.6, 64, 60.6, 58.7, 54.4, 51.9, 64.5, 47.7, 51.8, 31.5, 42.6 (2×), 28.2, 41.6, 33.2, 37.5, 47.4, 45.7, 36.9, 44.9, 42.3, 37.6, 30.2, 35.9, 52.7, 54.2, 48.7, 52.4, 48.8, 54, 36.8, 39.4, 47.8, 50.3, 49.7%"
same,growth,SK-OV-3 ovarian; runs of 2012,"inactive: 51.8, 40.7, 54.2 (2×), 53.2, 54.3, 48.4, 49.1 (2×), 59.8, 62.7, 53.9, 53.8, 49.7, 46.4, 46.5, 50.8, 39.4, 47.8, 47.4 (2×), 30.6, 54.9, 60.3, 45.6, 50, 56.6, 55.1, 52.5, 56.5, 57.6, 63.3, 56.3, 64.7, 59.5 (2×), 58.1, 55.7, 48.6, 59.3, 60.6, 58.4, 68.9, 56.9, 52.1, 68.1, 42.8, 43.6, 58.7, 62.9, 62.4, 70.1, 72.2, 76.4, 79.9, 84.2, 78.5, 67.5, 86.6, 81.7, 81.3, 97.8, 65.8, 68.8, 67.4, 68.3, 52.2, 47.6, 32.6, 20.2, 36.5, 37.8, 54.7%"
same,growth,SK-OV-3 ovarian; runs of 2013,"inactive: 55.1, 57.2, 47.2, 49.4, 53.5, 47.5, 68, 66.4, 61.3 (2×), 62.1, 51.4, 56.8 (2×), 63.9, 74, 71.8, 76.8 (2×), 73.6, 72.5, 63.3, 63.2, 56.1, 65.3, 70.7, 58.5 (2×), 74.3, 69.2, 75.6, 85.5, 74.8, 73.1, 66.6, 68.6, 81, 80.5, 80, 76.3, 77.6, 67.8, 81.3, 76.5, 83.2, 90.2, 84, 79.2, 76.6, 80.4, 90.4, 68.8, 81.5, 74.5, 59.1, 67.1, 58.6, 77.9, 64.7, 65.5, 66.8, 54.4 (2×), 54.7, 60.4, 53.7, 50, 54.1, 52.5, 64.4, 72.4, 80.2, 39.2, 60.6, 36.2, 40.2, 34%"

# From PubChem BioAssay (NCI)
